From the supplement of paper PMC4604168 (melanoma cell lines)
This is one part of the list. Repeats are few or missing, and single values can be far off.

Columns and labels:
Test in all cases: cell count relative to DMSO control; melanoma cells; higher = more viable cells
Settings in all cases: library dose: standard library concentration; 72 h
[1] = test system: G361
[2] = test system: IPC-298
[3] = test system: IST-MEL1
[4] = test system: LB2518-MEL
[5] = test system: LOXIMVI
[6] = test system: MEL-HO
[7] = test system: MZ2-MEL
[8] = test system: MeWo
[9] = test system: RPMI7951
[10] = test system: RVH-421
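Further: cells treated in 1,536-well plates, then fixed and DAPI-stained, with nuclei counted from automated high-throughput microscope images.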

Row | Structure (SMILES) | cell count [1] | cell count [2] | cell count [3] | cell count [4] | cell count [5] | cell count [6] | cell count [7] | cell count [8] | cell count [9] | cell count [10]
1 | C[C@@H](Oc1cc(-c2cnn(C3CCNCC3)c2)cnc1N)c1c(Cl)ccc(F)c1Cl [Crizotinib] + O=c1cc(-c2cccc3c2Sc2ccccc2S3)oc(N2CCOCC2)c1 [KU55933] (first compound 1 µM, partner dose 5 µM) | 86.2% | 101% | 87.9% | 84.7% | 120% | 89.9% | 95.9% | 76.7% | 73.7% | 106%
2 | CNC(=O)c1cc(Oc2ccc(NC(=O)Nc3ccc(Cl)c(C(F)(F)F)c3)cc2)ccn1 [sorafenib] + C[C@]1(c2nc3c(C(N)=O)cccc3[nH]2)CCCN1 [Veliparib] (first compound 2 µM, partner dose 7 µM) | 85.4% | 81.5% | 89.9% | 74.5% | 107% | 93.5% | 80.4% | 72.3% | 71% | 78.3%
3 | CS(=O)(=O)CCNCc1ccc(-c2ccc3ncnc(Nc4ccc(OCc5cccc(F)c5)c(Cl)c4)c3c2)o1 [lapatinib] + Cn1nnc2c(C(N)=O)ncn2c1=O [temozolomide] (first compound 4 µM, partner dose 10 µM) | 46.6% | 78.9% | 71.2% | 82.9% | 64% | 71.7% | 52.4% | 71.7% | 25.3% | 87.8%
4 | C[C@@H](Oc1cc(-c2cnn(C3CCNCC3)c2)cnc1N)c1c(Cl)ccc(F)c1Cl [Crizotinib] + COc1cc(N2CCC(N3CCN(C)CC3)CC2)ccc1Nc1ncc(Cl)c(Nc2ccccc2S(=O)(=O)C(C)C)n1 [NVP-TAE684] (first compound 1 µM, partner dose 0.4 µM) | 76.6% | 114% | 94.5% | 70.5% | 109% | 92.8% | 89.3% | 71% | 60.2% | 82.5%
5 | CS(=O)(=O)CCNCc1ccc(-c2ccc3ncnc(Nc4ccc(OCc5cccc(F)c5)c(Cl)c4)c3c2)o1 [lapatinib] + COc1ccc(-c2ccc3c(N4CCOCC4)nc(N4C[C@@H](C)O[C@@H](C)C4)nc3n2)cc1CO [KU0063794] (first compound 4 µM, partner dose 0.1 µM) | 75.6% | 66.4% | 89.4% | 93.5% | 103% | 72.9% | 65.4% | 77.7% | 75.8% | 86.9%
6 | CS(=O)(=O)CCNCc1ccc(-c2ccc3ncnc(Nc4ccc(OCc5cccc(F)c5)c(Cl)c4)c3c2)o1 [lapatinib] + CO[C@@H]1[C@H](N(C)C(=O)c2ccccc2)C[C@H]2O[C@]1(C)n1c3ccccc3c3c4c(c5c6ccccc6n2c5c31)C(=O)NC4 [Midostaurin] (first compound 4 µM, partner dose 0.4 µM) | 28.1% | 52% | 46.8% | 53.3% | 50.8% | 53.1% | 36.3% | 56.5% | 13.1% | 64%
7 | CNC(=O)c1cc(Oc2ccc(NC(=O)Nc3ccc(Cl)c(C(F)(F)F)c3)cc2)ccn1 [sorafenib] + O=C(CCCCCCC(=O)Nc1ccccc1)NO [vorinostat] (first compound 2 µM, partner dose 0.4 µM) | 94.3% | 87.5% | 114% | 77.9% | 139% | 97.8% | 137% | 82.1% | 82.8% | 77.7%
8 | C=CCNC1=C2C[C@@H](C)C[C@H](OC)[C@H](O)[C@@H](C)/C=C(\C)[C@H](OC(N)=O)[C@@H](OC)/C=C\C=C(/C)C(=O)NC(=CC1=O)C2=O [Tanespimycin] + COc1cc(N2CCC(N3CCN(C)CC3)CC2)ccc1Nc1ncc(Cl)c(Nc2ccccc2S(=O)(=O)C(C)C)n1 [NVP-TAE684] (first compound 0.01 µM, partner dose 0.4 µM) | 64.5% | 86.9% | 64.5% | 80.8% | 75.8% | 79% | 86.9% | 44.2% | 19.7% | 24.6%
9 | C[C@@H](Oc1cc(-c2cnn(C3CCNCC3)c2)cnc1N)c1c(Cl)ccc(F)c1Cl [Crizotinib] + CO[C@@H]1[C@H](N(C)C(=O)c2ccccc2)C[C@H]2O[C@]1(C)n1c3ccccc3c3c4c(c5c6ccccc6n2c5c31)C(=O)NC4 [Midostaurin] (first compound 1 µM, partner dose 0.4 µM) | 66.7% | 71.3% | 86.8% | 57.6% | 68% | 69.3% | 75.5% | 50.4% | 50.5% | 27.2%
10 | CNC(=O)c1cc(Oc2ccc(NC(=O)Nc3ccc(Cl)c(C(F)(F)F)c3)cc2)ccn1 [sorafenib] + CN(C)S(=O)(=O)c1ccc2c(c1)/C(=C/c1cc3c([nH]1)CCCC3)C(=O)N2 [SU6656] (first compound 2 µM, partner dose 2 µM) | 59.6% | 68.1% | 70.1% | 69.3% | 112% | 70.9% | 98.9% | 64.8% | 44.4% | 75.3%
11 | C=CCNC1=C2C[C@@H](C)C[C@H](OC)[C@H](O)[C@@H](C)/C=C(\C)[C@H](OC(N)=O)[C@@H](OC)/C=C\C=C(/C)C(=O)NC(=CC1=O)C2=O [Tanespimycin] + N#Cc1c(O)c2c(-c3ccc(-c4ccccc4O)cc3)csc2[nH]c1=O [A769662] (first compound 0.01 µM, partner dose 10 µM) | 71.5% | 88% | 62.3% | 78.2% | 109% | 83.2% | 90.1% | 72.7% | 28.4% | 82.1%
12 | CNC(=O)c1cc(Oc2ccc(NC(=O)Nc3ccc(Cl)c(C(F)(F)F)c3)cc2)ccn1 [sorafenib] + N#Cc1c(O)c2c(-c3ccc(-c4ccccc4O)cc3)csc2[nH]c1=O [A769662] (first compound 2 µM, partner dose 10 µM) | 95.1% | 93.6% | 85.7% | 96.2% | 102% | 81.9% | 109% | 80.6% | 79.1% | 79.4%
13 | CS(=O)(=O)CCNCc1ccc(-c2ccc3ncnc(Nc4ccc(OCc5cccc(F)c5)c(Cl)c4)c3c2)o1 [lapatinib] + C=CCn1c(=O)c2cnc(Nc3ccc(N4CCN(C)CC4)cc3)nc2n1-c1cccc(C(C)(C)O)n1 [MK1775] (first compound 4 µM, partner dose 0.1 µM) | 45.7% | 88% | 78.3% | 43.4% | 80.1% | 68.3% | 70.7% | 67.2% | 57% | 77%
14 | C[C@@H](Oc1cc(-c2cnn(C3CCNCC3)c2)cnc1N)c1c(Cl)ccc(F)c1Cl [Crizotinib] + COc1cc2ncnc(Nc3ccc(Oc4ccccc4)cc3)c2cc1OC [SrcI1] (first compound 1 µM, partner dose 10 µM) | 52.6% | 79.6% | 78% | 122% | 95.1% | 82.1% | 70.2% | 63.3% | 42.8% | 130%
15 | CS(=O)(=O)CCNCc1ccc(-c2ccc3ncnc(Nc4ccc(OCc5cccc(F)c5)c(Cl)c4)c3c2)o1 [lapatinib] + O=C(Nc1ccccc1)c1cc([N+](=O)[O-])ccc1Cl [GW9662] (first compound 4 µM, partner dose 10 µM) | 62.1% | 87.7% | 23.3% | 83.6% | 84.8% | 70% | 58.8% | 65.8% | 58.6% | 65.8%
16 | CS(=O)(=O)CCNCc1ccc(-c2ccc3ncnc(Nc4ccc(OCc5cccc(F)c5)c(Cl)c4)c3c2)o1 [lapatinib] + CC1(C)NC(=O)N(c2ccc([N+](=O)[O-])c(C(F)(F)F)c2)C1=O [nilutamide] (first compound 4 µM, partner dose 5 µM) | 81.6% | 98.4% | 95.5% | 108% | 92.3% | 89.1% | 83.6% | 72.2% | 52.1% | 80.8%
17 | CNC(=O)c1cc(Oc2ccc(NC(=O)Nc3ccc(Cl)c(C(F)(F)F)c3)cc2)ccn1 [sorafenib] + Cc1cc(N2CCOCC2)cc2[nH]c(-c3c(NC[C@@H](O)c4cccc(Cl)c4)cc[nH]c3=O)nc12 [BMS536924] (first compound 2 µM, partner dose 1 µM) | 69.9% | 94% | 90.6% | 65.1% | 91% | 97.3% | 105% | 58.8% | 69.7% | 81.1%
18 | C=CCNC1=C2C[C@@H](C)C[C@H](OC)[C@H](O)[C@@H](C)/C=C(\C)[C@H](OC(N)=O)[C@@H](OC)/C=C\C=C(/C)C(=O)NC(=CC1=O)C2=O [Tanespimycin] + CCc1ccc(CCOc2ccc(CC3SC(=O)NC3=O)cc2)nc1 [pioglitazone] (first compound 0.01 µM, partner dose 10 µM) | 61.6% | 84.2% | 59.2% | 72.3% | 85.4% | 81.9% | 105% | 85.6% | 31.2% | 69.8%
19 | CNC(=O)c1cc(Oc2ccc(NC(=O)Nc3ccc(Cl)c(C(F)(F)F)c3)cc2)ccn1 [sorafenib] + O=C1NC(=O)/C(=C/c2ccc(-c3ccc(F)cc3O)o2)S1 [AS252424] (first compound 2 µM, partner dose 5 µM) | 87.6% | 95.8% | 107% | 89.4% | 133% | 98.7% | 96.7% | 96.1% | 118% | 161%
20 | CS(=O)(=O)CCNCc1ccc(-c2ccc3ncnc(Nc4ccc(OCc5cccc(F)c5)c(Cl)c4)c3c2)o1 [lapatinib] + O=C(Nc1cccc(Cl)c1)Nc1ncc(CCNc2ncnc3ccsc23)s1 [SNS314] (first compound 4 µM, partner dose 0.004 µM) | 42.1% | 43.5% | 58% | 74.6% | 72.4% | 65.7% | 54.9% | 46% | 31.7% | 80.7%
